{"source": "a collection of fitness landscapes (doi:10.1016/j.celrep.2020.107928)", "parents": {"B1": {"name": "Caulobacter ParB omega fusion; a variant is named by its letters at X, in order, B8GW30 (parent)", "chain": "MESVVVGEPGMSEGRRGLGRGLSALLGEVDAAPAQAPGEQLGGSREAPIEILQRNPDQPRRTFREEDLEDLSNSIREKGVLQPILVRPSPDTAGEYQIVAGERAWRAAQRAGLKTVPIMVRELDDLAVLEIGIIENVQRADLNVLEEALSYKVLMEKFERTQENIAQTIGKSXSHVANXMRLLXLPDEVQSYLVSGELTAXHARAIAAAADPVALAKQIIEGGLSVRETEALARKAPNLSAGKSKGGRPPRVKDTDTQALESDLSSVLGLDVSIDHRGSTGTLTITYATLEQLDDLCNRLTRGI"}}, "note": "Whole data set: some 81,000 sequences, median “one-hybrid fitness for binding NBS DNA” near -0.1, cut for the highest 2% near 0.36. This is one part of the list."}
{"variants_of": "B1", "assay": "one-hybrid fitness for binding NBS DNA (the Noc-binding site; scaled: cognate 1, non-cognate 0); higher = stronger binding", "details": "with NBS DNA site", "method_in_brief": "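Pre- and post-selection plasmids were Illumina-sequenced, three replicate libraries were pooled, and any variant with under 10 reads was removed. The libraries were Caulobacter ParB with four specificity codons randomised, selected in E. coli USO through a HIS3 reporter whose site is 19 bp from the promoter. Cells grew 48 hours at 37°C on M9 without histidine, with 0.1 mM IPTG and 5 mM 3-AT. Fitness is the log change in variant-to-wild-type read ratio, rescaled against cognate and non-cognate.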"}
{"variant": "DALC", "one-hybrid fitness for binding NBS DNA": "≤ 0.2"}
{"variant": "KAVS", "one-hybrid fitness for binding NBS DNA": "≤ 0.2"}
{"variant": "ARMP", "one-hybrid fitness for binding NBS DNA": "≤ 0.2"}
{"variant": "HLTF", "one-hybrid fitness for binding NBS DNA": "≤ 0.2"}
{"variant": "GNTC", "one-hybrid fitness for binding NBS DNA": "≤ 0.2"}
{"variant": "ARTN", "one-hybrid fitness for binding NBS DNA": "≤ 0.2"}
{"variant": "LWSW", "one-hybrid fitness for binding NBS DNA": "≤ 0.2"}
{"variant": "PLKD", "one-hybrid fitness for binding NBS DNA": "≤ 0.2"}
{"variant": "RKCA", "one-hybrid fitness for binding NBS DNA": 0.265}
{"variant": "PVNA", "one-hybrid fitness for binding NBS DNA": "≤ 0.2"}
{"variant": "RPCM", "one-hybrid fitness for binding NBS DNA": "≤ 0.2"}
{"variant": "WFRM", "one-hybrid fitness for binding NBS DNA": "≤ 0.2"}
{"variant": "ICAC", "one-hybrid fitness for binding NBS DNA": "≤ 0.2"}
{"variant": "QCYP", "one-hybrid fitness for binding NBS DNA": "≤ 0.2"}
{"variant": "EGPS", "one-hybrid fitness for binding NBS DNA": "≤ 0.2"}
{"variant": "VDPY", "one-hybrid fitness for binding NBS DNA": "≤ 0.2"}
{"variant": "IPRT", "one-hybrid fitness for binding NBS DNA": "≤ 0.2"}
{"variant": "PYET", "one-hybrid fitness for binding NBS DNA": "≤ 0.2"}
{"variant": "KFVV", "one-hybrid fitness for binding NBS DNA": "≤ 0.2"}
{"variant": "DGAI", "one-hybrid fitness for binding NBS DNA": "≤ 0.2"}
{"variant": "WCRT", "one-hybrid fitness for binding NBS DNA": "≤ 0.2"}
{"variant": "AYWG", "one-hybrid fitness for binding NBS DNA": "≤ 0.2"}
{"variant": "MWSL", "one-hybrid fitness for binding NBS DNA": "≤ 0.2"}
{"variant": "CQGS", "one-hybrid fitness for binding NBS DNA": "≤ 0.2"}
{"variant": "LLKA", "one-hybrid fitness for binding NBS DNA": "≤ 0.2"}
{"variant": "SLWM", "one-hybrid fitness for binding NBS DNA": "≤ 0.2"}
{"variant": "TPVD", "one-hybrid fitness for binding NBS DNA": "≤ 0.2"}
{"variant": "LTQV", "one-hybrid fitness for binding NBS DNA": "≤ 0.2"}
{"variant": "GLSL", "one-hybrid fitness for binding NBS DNA": "≤ 0.2"}
{"variant": "RCIP", "one-hybrid fitness for binding NBS DNA": "≤ 0.2"}
{"variant": "DKLQ", "one-hybrid fitness for binding NBS DNA": "≤ 0.2"}
{"variant": "NVCD", "one-hybrid fitness for binding NBS DNA": "≤ 0.2"}
{"variant": "VTGR", "one-hybrid fitness for binding NBS DNA": "≤ 0.2"}
{"variant": "QMRI", "one-hybrid fitness for binding NBS DNA": 0.339}
{"variant": "LFDC", "one-hybrid fitness for binding NBS DNA": "≤ 0.2"}
{"variant": "SIGT", "one-hybrid fitness for binding NBS DNA": "≤ 0.2"}
{"variant": "RIKA", "one-hybrid fitness for binding NBS DNA": 0.327}
{"variant": "PERV", "one-hybrid fitness for binding NBS DNA": "≤ 0.2"}
{"variant": "TVNT", "one-hybrid fitness for binding NBS DNA": "≤ 0.2"}
{"variant": "FGER", "one-hybrid fitness for binding NBS DNA": "≤ 0.2"}
{"variant": "TMGS", "one-hybrid fitness for binding NBS DNA": "≤ 0.2"}
{"variant": "NEQA", "one-hybrid fitness for binding NBS DNA": "≤ 0.2"}
{"variant": "AGPR", "one-hybrid fitness for binding NBS DNA": "≤ 0.2"}
{"variant": "QSRC", "one-hybrid fitness for binding NBS DNA": 0.374}
{"variant": "RPQT", "one-hybrid fitness for binding NBS DNA": "≤ 0.2"}
{"variant": "VMPM", "one-hybrid fitness for binding NBS DNA": "≤ 0.2"}
{"variant": "RFDP", "one-hybrid fitness for binding NBS DNA": "≤ 0.2"}
{"variant": "PTFA", "one-hybrid fitness for binding NBS DNA": "≤ 0.2"}
{"variant": "FIVD", "one-hybrid fitness for binding NBS DNA": "≤ 0.2"}
{"variant": "ARPC", "one-hybrid fitness for binding NBS DNA": "≤ 0.2"}
{"variant": "QRKI", "one-hybrid fitness for binding NBS DNA": 0.52}
{"variant": "QLHY", "one-hybrid fitness for binding NBS DNA": "≤ 0.2"}
{"variant": "VPVI", "one-hybrid fitness for binding NBS DNA": "≤ 0.2"}
{"variant": "FCEG", "one-hybrid fitness for binding NBS DNA": "≤ 0.2"}
{"variant": "PFKS", "one-hybrid fitness for binding NBS DNA": "≤ 0.2"}
{"variant": "QRCW", "one-hybrid fitness for binding NBS DNA": 0.269}
{"variant": "YAMW", "one-hybrid fitness for binding NBS DNA": "≤ 0.2"}
{"variant": "KYLM", "one-hybrid fitness for binding NBS DNA": "≤ 0.2"}
{"variant": "LLPI", "one-hybrid fitness for binding NBS DNA": "≤ 0.2"}
{"variant": "TDFK", "one-hybrid fitness for binding NBS DNA": "≤ 0.2"}
{"variant": "FYSR", "one-hybrid fitness for binding NBS DNA": "≤ 0.2"}
{"variant": "RIPN", "one-hybrid fitness for binding NBS DNA": "≤ 0.2"}
{"variant": "LKFG", "one-hybrid fitness for binding NBS DNA": "≤ 0.2"}
{"variant": "VALT", "one-hybrid fitness for binding NBS DNA": "≤ 0.2"}
{"variant": "QKCY", "one-hybrid fitness for binding NBS DNA": "≤ 0.2"}
{"variant": "TKDR", "one-hybrid fitness for binding NBS DNA": "≤ 0.2"}
{"variant": "VNHA", "one-hybrid fitness for binding NBS DNA": "≤ 0.2"}
{"variant": "DCWL", "one-hybrid fitness for binding NBS DNA": "≤ 0.2"}
{"variant": "EHHT", "one-hybrid fitness for binding NBS DNA": "≤ 0.2"}
{"variant": "FVYR", "one-hybrid fitness for binding NBS DNA": "≤ 0.2"}
{"variant": "DYYC", "one-hybrid fitness for binding NBS DNA": "≤ 0.2"}
{"variant": "GIGV", "one-hybrid fitness for binding NBS DNA": "≤ 0.2"}
{"variant": "RGSA", "one-hybrid fitness for binding NBS DNA": "≤ 0.2"}
{"variant": "RGRY", "one-hybrid fitness for binding NBS DNA": "≤ 0.2"}
{"variant": "HVTG", "one-hybrid fitness for binding NBS DNA": "≤ 0.2"}
{"variant": "DHHG", "one-hybrid fitness for binding NBS DNA": "≤ 0.2"}
{"variant": "TIRV", "one-hybrid fitness for binding NBS DNA": "≤ 0.2"}
{"variant": "QCTV", "one-hybrid fitness for binding NBS DNA": "≤ 0.2"}
{"variant": "TTYM", "one-hybrid fitness for binding NBS DNA": "≤ 0.2"}
{"variant": "HRYP", "one-hybrid fitness for binding NBS DNA": "≤ 0.2"}
{"variant": "EGES", "one-hybrid fitness for binding NBS DNA": "≤ 0.2"}
{"variant": "YPDI", "one-hybrid fitness for binding NBS DNA": "≤ 0.2"}
{"variant": "VTMG", "one-hybrid fitness for binding NBS DNA": "≤ 0.2"}
{"variant": "YTNL", "one-hybrid fitness for binding NBS DNA": "≤ 0.2"}
{"variant": "NTQL", "one-hybrid fitness for binding NBS DNA": "≤ 0.2"}
{"variant": "WVLH", "one-hybrid fitness for binding NBS DNA": "≤ 0.2"}
{"variant": "VGWR", "one-hybrid fitness for binding NBS DNA": "≤ 0.2"}
{"variant": "DYPS", "one-hybrid fitness for binding NBS DNA": "≤ 0.2"}
{"variant": "VVTP", "one-hybrid fitness for binding NBS DNA": "≤ 0.2"}
{"variant": "YSRY", "one-hybrid fitness for binding NBS DNA": "≤ 0.2"}
{"variant": "KLGS", "one-hybrid fitness for binding NBS DNA": "≤ 0.2"}
{"variant": "ANTF", "one-hybrid fitness for binding NBS DNA": "≤ 0.2"}
{"variant": "LCHS", "one-hybrid fitness for binding NBS DNA": "≤ 0.2"}
{"variant": "QPMA", "one-hybrid fitness for binding NBS DNA": "≤ 0.2"}
{"variant": "AVTG", "one-hybrid fitness for binding NBS DNA": "≤ 0.2"}
{"variant": "SHCG", "one-hybrid fitness for binding NBS DNA": "≤ 0.2"}
{"variant": "HQEC", "one-hybrid fitness for binding NBS DNA": "≤ 0.2"}
{"variant": "PHAG", "one-hybrid fitness for binding NBS DNA": "≤ 0.2"}
{"variant": "SYMS", "one-hybrid fitness for binding NBS DNA": "≤ 0.2"}
{"variant": "TYLE", "one-hybrid fitness for binding NBS DNA": "≤ 0.2"}
{"variant": "TYNF", "one-hybrid fitness for binding NBS DNA": "≤ 0.2"}
{"variant": "NACC", "one-hybrid fitness for binding NBS DNA": "≤ 0.2"}
{"variant": "TSSP", "one-hybrid fitness for binding NBS DNA": "≤ 0.2"}
{"variant": "QQWV", "one-hybrid fitness for binding NBS DNA": "≤ 0.2"}
{"variant": "ATQF", "one-hybrid fitness for binding NBS DNA": "≤ 0.2"}
{"variant": "WQCG", "one-hybrid fitness for binding NBS DNA": "≤ 0.2"}
{"variant": "ETRD", "one-hybrid fitness for binding NBS DNA": "≤ 0.2"}
{"variant": "NDMF", "one-hybrid fitness for binding NBS DNA": "≤ 0.2"}
{"variant": "FAFN", "one-hybrid fitness for binding NBS DNA": "≤ 0.2"}
{"variant": "SHPY", "one-hybrid fitness for binding NBS DNA": "≤ 0.2"}
{"variant": "FSQG", "one-hybrid fitness for binding NBS DNA": "≤ 0.2"}
{"variant": "QKPW", "one-hybrid fitness for binding NBS DNA": "≤ 0.2"}
{"variant": "HDCG", "one-hybrid fitness for binding NBS DNA": "≤ 0.2"}
{"variant": "MLQS", "one-hybrid fitness for binding NBS DNA": "≤ 0.2"}
{"variant": "AFFT", "one-hybrid fitness for binding NBS DNA": "≤ 0.2"}
{"variant": "MTNC", "one-hybrid fitness for binding NBS DNA": "≤ 0.2"}
{"variant": "DQAY", "one-hybrid fitness for binding NBS DNA": "≤ 0.2"}
{"variant": "NLLL", "one-hybrid fitness for binding NBS DNA": "≤ 0.2"}
{"variant": "ARTW", "one-hybrid fitness for binding NBS DNA": "≤ 0.2"}
{"variant": "RPHA", "one-hybrid fitness for binding NBS DNA": "≤ 0.2"}
{"variant": "CSPG", "one-hybrid fitness for binding NBS DNA": "≤ 0.2"}
{"variant": "LLTR", "one-hybrid fitness for binding NBS DNA": "≤ 0.2"}
{"variant": "QDPW", "one-hybrid fitness for binding NBS DNA": "≤ 0.2"}
{"variant": "SLVG", "one-hybrid fitness for binding NBS DNA": "≤ 0.2"}
{"variant": "QHKP", "one-hybrid fitness for binding NBS DNA": 0.255}
{"variant": "RSHT", "one-hybrid fitness for binding NBS DNA": 0.402}
{"variant": "PREG", "one-hybrid fitness for binding NBS DNA": "≤ 0.2"}
{"variant": "NVAE", "one-hybrid fitness for binding NBS DNA": "≤ 0.2"}
{"variant": "LAQM", "one-hybrid fitness for binding NBS DNA": "≤ 0.2"}
{"variant": "HFFS", "one-hybrid fitness for binding NBS DNA": "≤ 0.2"}
{"variant": "YFCG", "one-hybrid fitness for binding NBS DNA": "≤ 0.2"}
{"variant": "PVMM", "one-hybrid fitness for binding NBS DNA": "≤ 0.2"}
{"variant": "IRTA", "one-hybrid fitness for binding NBS DNA": "≤ 0.2"}
{"variant": "PASW", "one-hybrid fitness for binding NBS DNA": "≤ 0.2"}
{"variant": "HIVR", "one-hybrid fitness for binding NBS DNA": "≤ 0.2"}
{"variant": "EQTC", "one-hybrid fitness for binding NBS DNA": "≤ 0.2"}
{"variant": "CDHS", "one-hybrid fitness for binding NBS DNA": "≤ 0.2"}
{"variant": "SPIE", "one-hybrid fitness for binding NBS DNA": "≤ 0.2"}
{"variant": "DANC", "one-hybrid fitness for binding NBS DNA": "≤ 0.2"}
{"variant": "LKVD", "one-hybrid fitness for binding NBS DNA": "≤ 0.2"}
{"variant": "FVKE", "one-hybrid fitness for binding NBS DNA": "≤ 0.2"}
{"variant": "LHEW", "one-hybrid fitness for binding NBS DNA": "≤ 0.2"}
{"variant": "YRPL", "one-hybrid fitness for binding NBS DNA": "≤ 0.2"}
{"variant": "NADL", "one-hybrid fitness for binding NBS DNA": "≤ 0.2"}
{"variant": "RGIH", "one-hybrid fitness for binding NBS DNA": "≤ 0.2"}
{"variant": "SYPV", "one-hybrid fitness for binding NBS DNA": "≤ 0.2"}
{"variant": "QCSC", "one-hybrid fitness for binding NBS DNA": "≤ 0.2"}
{"variant": "CDPT", "one-hybrid fitness for binding NBS DNA": "≤ 0.2"}
{"variant": "YTNT", "one-hybrid fitness for binding NBS DNA": "≤ 0.2"}
{"variant": "TRCS", "one-hybrid fitness for binding NBS DNA": "≤ 0.2"}
{"variant": "RLVS", "one-hybrid fitness for binding NBS DNA": 0.224}
{"variant": "QMPY", "one-hybrid fitness for binding NBS DNA": "≤ 0.2"}
{"variant": "IYRC", "one-hybrid fitness for binding NBS DNA": "≤ 0.2"}
